A collection of fitness landscapes (doi:10.1126/science.1257360)
Some of the results follow.

B1: PhoQ; a variant is named by its letters at X, in order, P23837 (parent)
chain: MKKLLRLFFPLSLRVRFLLATAAVVLVLSLAYGMVALIGYSVSFDKTTFRLLRGESNLFYTLAKWENNKLHVELPENIDKQSPTMTLIYDENGQLLWAQRDVPWLMKMIQPDWLKSNGFHEIEADVNDTSLLLSGDHSIQQQLQEVREDDDDAEMTHSVAVNVYPATSRMPKLTIVVVDTIPVELKSSYMVWSWFIYVLSANLLLVIPLLWVAAWWSLRPIEALAKEVRELEEHNRELLNPATTRELTSLVRNLNRLLKSERERYDKYRTTLTDLTHSLKTPLXXLQXXLRSLRSEKMSVSDAEPVMLEQISRISQQIGYYLHRASMRGGTLLSRELHPVAPLLDNLTSALNKVYQRKGVNISLDISPEISFVGEQNDFVEVMGNVLDNACKYCLEFVEISARQTDEHLYIVVEDDGPGIPLSKREVIFDRGQRVDTLRPGQGVGLAVAREITEQYEGKIVAGESMLGGARMEVIFGRQHSAPKDE

Variants of: B1
Experiment: enrichment ratio after two sorts for PhoP signalling (ratio (wild type AVST 3.29)); higher = more functional
Conditions: with PhoP (E. coli)
With WEMH the enrichment ratio was at most 0.25. WEQQ showed an enrichment ratio of at most 0.25. With DNKK the enrichment ratio was at most 0.25. Work on PLKS yielded an enrichment ratio of at most 0.25. For YSGS, the enrichment ratio was at most 0.25. WRWV was tested, and the enrichment ratio was at most 0.25. For HCDM, the enrichment ratio was at most 0.25. LYTC showed an enrichment ratio of at most 0.25. KPCV showed an enrichment ratio of at most 0.25. For FALQ, the enrichment ratio was 7.48. In the case of TSVK, the enrichment ratio is reported as at most 0.25. In the case of PMWM, the enrichment ratio is reported as at most 0.25. NIAC was tested, and the enrichment ratio was at most 0.25. For HHPA, the enrichment ratio was at most 0.25. Work on AYPG yielded an enrichment ratio of at most 0.25. NHLN was tested, and the enrichment ratio was at most 0.25. In the case of WMHL, the enrichment ratio is reported as at most 0.25. With RWTI the enrichment ratio was at most 0.25. Work on HEKL yielded an enrichment ratio of at most 0.25. With NYRF the enrichment ratio was 0.803. For MLQK, the enrichment ratio was at most 0.25. EFGG gave an enrichment ratio of at most 0.25. For TIHQ, the enrichment ratio was 1.2. In the case of GLHR, the enrichment ratio is reported as at most 0.25. Variant ACAS has an enrichment ratio of 7.49. In the case of DPVL, the enrichment ratio is reported as at most 0.25. Work on AYMK yielded an enrichment ratio of at most 0.25. RRIA gave an enrichment ratio of at most 0.25. With VNIM the enrichment ratio was at most 0.25. Work on FMDT yielded an enrichment ratio of at most 0.25. In the case of VEMK, the enrichment ratio is reported as at most 0.25. YEGS showed an enrichment ratio of at most 0.25. Variant ALFN has an enrichment ratio of at most 0.25. With MCGI the enrichment ratio was at most 0.25. RMWQ gave an enrichment ratio of at most 0.25. HATW was tested, and the enrichment ratio was at most 0.25. With LWPH the enrichment ratio was at most 0.25. FFLL showed an enrichment ratio of at most 0.25. YGNY gave an enrichment ratio of at most 0.25. With HYFR the enrichment ratio was at most 0.25. Variant MWTS has an enrichment ratio of at most 0.25. RCIR gave an enrichment ratio of at most 0.25. For LDIF, the enrichment ratio was at most 0.25. PLMK showed an enrichment ratio of at most 0.25. RRQE showed an enrichment ratio of at most 0.25. MHQF showed an enrichment ratio of 0.444. HQWL gave an enrichment ratio of at most 0.25. For DRCK, the enrichment ratio was at most 0.25. Work on VHIW yielded an enrichment ratio of at most 0.25. LWYC gave an enrichment ratio of at most 0.25. GYSS showed an enrichment ratio of at most 0.25. In the case of SSEL, the enrichment ratio is reported as 0.485. In the case of ANHW, the enrichment ratio is reported as at most 0.25. In the case of DMKG, the enrichment ratio is reported as at most 0.25. In the case of FMEM, the enrichment ratio is reported as at most 0.25. With VVHP the enrichment ratio was at most 0.25. SCCL was tested, and the enrichment ratio was 18.7. LAQI showed an enrichment ratio of at most 0.25. Work on TQHW yielded an enrichment ratio of at most 0.25. YLKA was tested, and the enrichment ratio was at most 0.25. Work on MFRC yielded an enrichment ratio of at most 0.25. In the case of IRDN, the enrichment ratio is reported as at most 0.25. Work on YDTM yielded an enrichment ratio of at most 0.25. In the case of EIFG, the enrichment ratio is reported as at most 0.25. Work on HDRK yielded an enrichment ratio of at most 0.25. Work on RCVS yielded an enrichment ratio of at most 0.25. SVCN was tested, and the enrichment ratio was 19.4. With MEHC the enrichment ratio was 3.36. For SAMW, the enrichment ratio was 1.19. Variant IFHH has an enrichment ratio of at most 0.25. FLFY gave an enrichment ratio of at most 0.25. DCHV showed an enrichment ratio of at most 0.25. Work on ESNV yielded an enrichment ratio of at most 0.25. LSIF showed an enrichment ratio of at most 0.25. LWVK gave an enrichment ratio of at most 0.25. In the case of EACM, the enrichment ratio is reported as at most 0.25. With NFGW the enrichment ratio was at most 0.25. For GQGM, the enrichment ratio was at most 0.25. In the case of EHWF, the enrichment ratio is reported as at most 0.25. RPAY showed an enrichment ratio of at most 0.25. DEKD gave an enrichment ratio of at most 0.25. TTFQ gave an enrichment ratio of 5.22. With MYIR the enrichment ratio was at most 0.25. Work on RVHD yielded an enrichment ratio of at most 0.25. YSSA gave an enrichment ratio of at most 0.25. With QQDH the enrichment ratio was at most 0.25. With MTIH the enrichment ratio was at most 0.25. With RLYT the enrichment ratio was at most 0.25. With SGND the enrichment ratio was at most 0.25. PNPR gave an enrichment ratio of at most 0.25. AFFN gave an enrichment ratio of at most 0.25. Variant EQQV has an enrichment ratio of at most 0.25. Variant QCNH has an enrichment ratio of at most 0.25. In the case of DPWL, the enrichment ratio is reported as at most 0.25. Work on GCFD yielded an enrichment ratio of at most 0.25. With TTIG the enrichment ratio was at most 0.25. Work on MFVL yielded an enrichment ratio of at most 0.25. NIHW gave an enrichment ratio of at most 0.25. WQYR showed an enrichment ratio of at most 0.25. Variant DRIK has an enrichment ratio of at most 0.25. TIGH was tested, and the enrichment ratio was 8.05. HYQP was tested, and the enrichment ratio was at most 0.25. Work on DCLH yielded an enrichment ratio of at most 0.25. TCYS was tested, and the enrichment ratio was 0.305. VIWG was tested, and the enrichment ratio was at most 0.25. DYCV was tested, and the enrichment ratio was at most 0.25. Work on ATND yielded an enrichment ratio of at most 0.25. RPHL showed an enrichment ratio of at most 0.25. GNVT gave an enrichment ratio of at most 0.25. Variant QERG has an enrichment ratio of at most 0.25. With IANM the enrichment ratio was at most 0.25. For DEWC, the enrichment ratio was at most 0.25. LWLK showed an enrichment ratio of at most 0.25. In the case of VFGE, the enrichment ratio is reported as at most 0.25. PPIV gave an enrichment ratio of at most 0.25. HSRA gave an enrichment ratio of at most 0.25. Work on TFDH yielded an enrichment ratio of at most 0.25. Work on DKFF yielded an enrichment ratio of at most 0.25. With SSYS the enrichment ratio was at most 0.25. Work on WWQF yielded an enrichment ratio of at most 0.25. QNQW gave an enrichment ratio of at most 0.25. Work on NQKS yielded an enrichment ratio of at most 0.25. WVAL was tested, and the enrichment ratio was at most 0.25. For AAFG, the enrichment ratio was at most 0.25. GWKV gave an enrichment ratio of at most 0.25. Variant LHSG has an enrichment ratio of 0.538. Variant LFTQ has an enrichment ratio of at most 0.25. TQNQ gave an enrichment ratio of 5.59. IDSP was tested, and the enrichment ratio was at most 0.25. HILW gave an enrichment ratio of at most 0.25. For YARL, the enrichment ratio was at most 0.25. HTPD showed an enrichment ratio of at most 0.25. For ANAC, the enrichment ratio was at most 0.25. With EFFS the enrichment ratio was at most 0.25. IIVG gave an enrichment ratio of at most 0.25. Variant AGYY has an enrichment ratio of at most 0.25. In the case of DPSL, the enrichment ratio is reported as at most 0.25. TYGS was tested, and the enrichment ratio was 0.441. In the case of AETA, the enrichment ratio is reported as 5.73. In the case of LAKI, the enrichment ratio is reported as at most 0.25. Variant ERCK has an enrichment ratio of at most 0.25. In the case of IIPW, the enrichment ratio is reported as at most 0.25. In the case of DFNF, the enrichment ratio is reported as at most 0.25. FKKP was tested, and the enrichment ratio was at most 0.25. For FYLE, the enrichment ratio was at most 0.25. For SHTT, the enrichment ratio was at most 0.25. With SEDP the enrichment ratio was at most 0.25. Variant WSGL has an enrichment ratio of at most 0.25. In the case of TASR, the enrichment ratio is reported as 0.261. Variant EPLQ has an enrichment ratio of at most 0.25. In the case of AHTY, the enrichment ratio is reported as at most 0.25. IHML was tested, and the enrichment ratio was at most 0.25. With EMER the enrichment ratio was at most 0.25. Variant HTQH has an enrichment ratio of at most 0.25. SQDT showed an enrichment ratio of at most 0.25. Variant DNVI has an enrichment ratio of at most 0.25. Variant HEEL has an enrichment ratio of at most 0.25. In the case of SEGE, the enrichment ratio is reported as at most 0.25. For QRFE, the enrichment ratio was at most 0.25. Work on GQPA yielded an enrichment ratio of at most 0.25. With DPTQ the enrichment ratio was at most 0.25. MRCR showed an enrichment ratio of at most 0.25. DFCH was tested, and the enrichment ratio was at most 0.25. In the case of HTDF, the enrichment ratio is reported as at most 0.25. SLHA was tested, and the enrichment ratio was at most 0.25. THNW was tested, and the enrichment ratio was at most 0.25. In the case of SARS, the enrichment ratio is reported as at most 0.25. QQVY gave an enrichment ratio of at most 0.25. For QLTM, the enrichment ratio was at most 0.25. Work on VLHT yielded an enrichment ratio of at most 0.25. For MNPW, the enrichment ratio was at most 0.25. Work on GMRV yielded an enrichment ratio of at most 0.25. In the case of IYEL, the enrichment ratio is reported as at most 0.25. Work on AGQM yielded an enrichment ratio of 15.8. YYFV gave an enrichment ratio of at most 0.25. SGKV gave an enrichment ratio of at most 0.25. With MKWS the enrichment ratio was at most 0.25. IEVP showed an enrichment ratio of at most 0.25. Work on FEWE yielded an enrichment ratio of at most 0.25. For QIYC, the enrichment ratio was at most 0.25. In the case of WATG, the enrichment ratio is reported as at most 0.25. Variant STEI has an enrichment ratio of at most 0.25. In the case of HSYI, the enrichment ratio is reported as at most 0.25. With DNFF the enrichment ratio was at most 0.25. With QKIC the enrichment ratio was at most 0.25. Work on FGAM yielded an enrichment ratio of at most 0.25. Variant GKPV has an enrichment ratio of at most 0.25. With RHLN the enrichment ratio was at most 0.25. WCFC was tested, and the enrichment ratio was at most 0.25. Work on QWYS yielded an enrichment ratio of at most 0.25. KQKG gave an enrichment ratio of at most 0.25. KINM showed an enrichment ratio of at most 0.25. MIII gave an enrichment ratio of at most 0.25. QVSS gave an enrichment ratio of 2.17. For PHLE, the enrichment ratio was at most 0.25.
